Among all 310,000 compounds or so, about 2,200 (0.71%) showed an effect of 50% or more. The effect is printed as a negative number. Some of the results follow.
target: human ether-à-go-go-related gene (hERG) potassium channel (human, UniProt Q12809); test: primary screen, population patch clamp on CHO cells stably expressing hERG
Sequence (Q12809 whole entry, looked up): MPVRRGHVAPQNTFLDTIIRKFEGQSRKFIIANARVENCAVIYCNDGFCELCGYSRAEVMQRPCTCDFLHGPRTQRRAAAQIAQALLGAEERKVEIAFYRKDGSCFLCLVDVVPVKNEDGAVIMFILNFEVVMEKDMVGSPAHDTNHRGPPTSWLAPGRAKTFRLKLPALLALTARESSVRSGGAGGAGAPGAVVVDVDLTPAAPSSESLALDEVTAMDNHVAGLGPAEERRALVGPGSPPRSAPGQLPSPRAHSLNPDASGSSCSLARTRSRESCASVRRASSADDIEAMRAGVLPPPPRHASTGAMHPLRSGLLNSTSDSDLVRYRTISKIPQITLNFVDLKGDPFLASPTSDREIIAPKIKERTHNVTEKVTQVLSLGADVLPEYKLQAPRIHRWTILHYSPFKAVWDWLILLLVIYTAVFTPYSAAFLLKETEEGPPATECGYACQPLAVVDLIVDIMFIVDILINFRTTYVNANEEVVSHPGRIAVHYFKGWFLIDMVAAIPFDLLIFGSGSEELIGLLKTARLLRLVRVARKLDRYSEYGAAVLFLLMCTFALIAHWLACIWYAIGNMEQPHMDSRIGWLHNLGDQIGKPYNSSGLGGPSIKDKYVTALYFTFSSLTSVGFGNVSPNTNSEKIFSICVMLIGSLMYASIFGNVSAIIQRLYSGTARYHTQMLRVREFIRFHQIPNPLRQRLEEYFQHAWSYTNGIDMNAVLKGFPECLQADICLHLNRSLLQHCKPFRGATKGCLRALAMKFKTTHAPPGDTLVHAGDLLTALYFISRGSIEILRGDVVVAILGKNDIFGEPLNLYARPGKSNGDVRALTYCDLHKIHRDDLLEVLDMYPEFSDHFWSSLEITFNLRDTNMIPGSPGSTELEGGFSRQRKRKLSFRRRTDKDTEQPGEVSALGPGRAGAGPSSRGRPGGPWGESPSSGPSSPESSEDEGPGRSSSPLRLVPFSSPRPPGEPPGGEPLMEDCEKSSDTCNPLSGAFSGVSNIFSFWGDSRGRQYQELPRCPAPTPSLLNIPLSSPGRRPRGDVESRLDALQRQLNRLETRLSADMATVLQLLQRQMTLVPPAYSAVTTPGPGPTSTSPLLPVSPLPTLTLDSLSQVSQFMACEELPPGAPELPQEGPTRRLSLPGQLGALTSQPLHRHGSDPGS

SMILES | hERG current change (%, negative = inhibition) at 1uM
Cc1ccsc1/C=N/NC(=O)CNC(=O)c1ccco1 | 16.1%
CCCNC(=O)N1C2=NC(C(=O)OC)=C(C(=O)OC)[C@@H]3N(Cc4ccccc4)c4ccccc4[C@]23C[C@H]1CO | 9.69%
COc1ccc(CC2NCCC3=CC(=O)CCC32)cc1O (centres unmarked) | 13.5%
CCOc1ccc(-n2c(=O)[nH]cc(C(=O)N3CCCc4ccccc43)c2=O)cc1 | 13%
COCCNC(=O)C(c1ccc(C)o1)N(Cc1cccs1)C(=O)c1snc(C(N)=O)c1N (centres unmarked) | 4.93%
Cc1cc(C)c(S(=O)(=O)Nc2ccnc(-c3cccnc3)n2)c(C)c1 | 22.5%
O=C(NCC1CCCN1S(=O)(=O)c1cccs1)C(=O)Nc1ccc(F)cc1 (centres unmarked) | -4.58%
Cc1nc2ccc(C(=O)N/N=C/c3ccccc3O)cc2[nH]1 | 6.05%
CC(=O)Oc1c(Br)cc(N(C(C)=O)S(=O)(=O)c2ccccc2)c2ccccc12 | 19.9%
CC(=O)Nc1ccc(S(=O)(=O)Nc2ccccc2C(=O)N2CCCC2)cc1 | 9.04%
Cc1ccc(S(=O)(=O)N2CCCCC2)cc1NC(=O)CSc1nncn1-c1ccccc1 | 6.21%
O=C(NNc1nc2c(F)cccc2s1)c1ccc(F)cc1 | -0.0058%
O=S(=O)(c1ccc(S(=O)(=O)N(Cc2ccco2)Cc2ccccc2Cl)cc1)N1CCCC1 | 7.98%
Cc1[nH]c2ccccc2c1C(=O)C(C)Sc1nnc(C2CC2)o1 (centres unmarked) | 12.8%
Cc1noc(C)c1CSCC(=O)N(C)CC(=O)Nc1ccc(F)cc1 | 7.95%
CCn1c(SCC(=O)NC2CCCC2)nnc1-c1ccccn1 | 16.6%
Cc1ccc(C)c(NC(=O)c2cc(C)nc3ccccc23)c1 | 0.996%
COc1ccc(N=C2S/C(=C\c3cc(C)n(C)c3C)C(=O)N2C)cc1 | 5.22%
CC(C)(C)C(=O)CN1CCN(C2c3ccccc3-c3ccccc32)CC1 | -0.493%
Cc1ccc(C)c(CN2C(=O)NC3(CCCCCC3)C2=O)c1 | 15.9%
Cc1ccc(S(=O)(=O)NCc2ccc(C(=O)NCCc3ccc(S(N)(=O)=O)cc3)cc2)cc1 | 6%
COc1ccc(Cn2nc(C(=O)O)c3ccccc3c2=O)cc1F | 15.1%
O=C(C1CCCN(C2CC(=O)N(c3ccc(Cl)cc3)C2=O)C1)N1CCCC1 (centres unmarked) | 12.5%
